# Experimental data: article PMC4336329 (PLoS ONE, 2015)
# The campaign covered roughly 310,000 compounds. About 2,200 (0.71%) showed an effect of 50% or more. Effects have a minus sign here. This is one part of the list.
# Biological target: human ether-à-go-go-related gene (hERG) potassium channel (human, UniProt Q12809)
# Experiment: primary screen, population patch clamp on CHO cells stably expressing hERG
# human ether-à-go-go-related gene (hERG) potassium channel, sequence (Q12809 whole entry, looked up): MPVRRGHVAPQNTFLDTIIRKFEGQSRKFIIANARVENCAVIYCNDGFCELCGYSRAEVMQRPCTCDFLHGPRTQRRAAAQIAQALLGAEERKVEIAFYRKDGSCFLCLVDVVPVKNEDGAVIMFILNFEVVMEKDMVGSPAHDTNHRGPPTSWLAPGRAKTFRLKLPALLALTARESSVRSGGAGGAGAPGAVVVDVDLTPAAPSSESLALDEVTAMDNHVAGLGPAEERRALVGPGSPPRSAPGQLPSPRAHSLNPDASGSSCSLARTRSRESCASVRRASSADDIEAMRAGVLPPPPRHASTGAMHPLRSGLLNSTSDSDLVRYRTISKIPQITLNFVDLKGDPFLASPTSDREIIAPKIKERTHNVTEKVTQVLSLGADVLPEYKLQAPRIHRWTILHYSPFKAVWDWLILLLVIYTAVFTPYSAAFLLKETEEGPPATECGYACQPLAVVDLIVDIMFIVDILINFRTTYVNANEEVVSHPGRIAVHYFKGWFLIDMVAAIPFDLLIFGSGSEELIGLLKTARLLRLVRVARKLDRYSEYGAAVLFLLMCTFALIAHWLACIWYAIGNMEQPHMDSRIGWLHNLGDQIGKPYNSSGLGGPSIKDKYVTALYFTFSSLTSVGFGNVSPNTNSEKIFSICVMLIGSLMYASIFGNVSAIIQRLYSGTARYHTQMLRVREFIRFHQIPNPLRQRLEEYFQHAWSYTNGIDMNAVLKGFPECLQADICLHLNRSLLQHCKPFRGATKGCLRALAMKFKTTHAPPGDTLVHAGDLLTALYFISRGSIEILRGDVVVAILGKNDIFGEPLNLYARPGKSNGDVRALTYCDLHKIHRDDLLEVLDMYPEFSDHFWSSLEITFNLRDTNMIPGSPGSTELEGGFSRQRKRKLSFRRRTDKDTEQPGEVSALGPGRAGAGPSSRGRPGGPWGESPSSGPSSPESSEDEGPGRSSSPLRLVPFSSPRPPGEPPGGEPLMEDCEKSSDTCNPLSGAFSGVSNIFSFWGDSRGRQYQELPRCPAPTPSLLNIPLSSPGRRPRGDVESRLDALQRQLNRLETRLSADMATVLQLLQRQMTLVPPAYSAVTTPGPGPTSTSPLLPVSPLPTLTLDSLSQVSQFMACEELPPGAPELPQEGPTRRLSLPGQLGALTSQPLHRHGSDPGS
row,SMILES,"hERG current change (%, negative = inhibition) at 1uM [%]"
1,O=C(CSCc1ccc(Cl)cc1)N1CCOCC1,10.3
2,O=C(CCCCCN1C(=O)c2cccc3cccc(c23)C1=O)N1CCOCC1,3.08
3,COC(=O)c1ccc2[nH]c3c(c2c1)CC(C)CC3 (stereo not shown),18.2
4,O=C(CSc1nc(-c2ccccc2)cc(C(F)(F)F)n1)NCc1cccs1,14.5
5,Cc1ccc(NC(=O)CCNS(=O)(=O)c2cccc3nsnc23)cc1,5.86
6,CC(=O)Nc1nonc1NC(=O)c1ccc(F)cc1,24.6
7,CCN1CCCn2c1nc1c2c(=O)n(C)c(=O)n1C,7.15
8,O=c1c2c3c(sc2nc2n1CCCCC2)C(O)CCC3 (stereo not shown),5.61
9,Cc1cc(-c2cc(C(=O)NC3CCCC3)on2)nc(NCC2CC2)n1,11
10,Cn1c(=O)c2c(nc(NC(Cc3ccccc3)C(=O)O)n2Cc2ccccc2)n(C)c1=O (stereo not shown),5.44
11,COc1ccc(Nc2nc(N)nc(CSCCO)n2)cc1,-2.77
12,COC(=O)CN(c1ccccc1)S(=O)(=O)c1cc(Br)ccc1OC,9.19
13,CCOCCCNC(=O)c1cc(=O)n(Cc2cccc(C)c2)c2ccccc12,5.29
14,O=C(OCN1C(=O)c2ccccc2C1=O)c1cccs1,16
15,COc1ccc(OC)c(NC(=O)CSc2nnc(-c3cnccn3)n2C)c1,8.8
16,COc1cccc(C(=O)N2CCC(C(=O)NCc3ccco3)CC2)c1,-43.2
17,Cc1ccc(-c2c(C)sc3nc(CN4CCN(CC(=O)NC5CC5)CC4)[nH]c(=O)c23)cc1,-12.7
18,Cc1cc(=O)n2[nH]c(C)c(-c3ccccc3)c2n1,12.5
19,OCCCn1c(CCNc2nc(-c3ccc(Cl)cc3)cs2)nc2cc(C(F)(F)F)ccc21,10.9
20,O=c1[nH]c2ccc(Cl)cc2c(-c2ccccc2)c1N1CCN(c2ccccn2)CC1,11.9
21,Cc1ccc(S(=O)(=O)Oc2ccc(/C=N/NC(=O)c3nn(C)cc3Cl)cc2)cc1,6.53
22,C=CCN(C(=O)CCc1ccccc1OC)c1nc(-c2ccc(S(C)(=O)=O)cc2)cs1,11.6
23,CC(C)C(C)NC(=O)COC(=O)c1cc(S(=O)(=O)N(C)C)ccc1N1CCCC1 (stereo not shown),13
24,COc1ccc(/C=N/NC(=O)C2C3CCCCC32)cc1OC (stereo not shown),9.38
25,COc1cccc(C(C(=O)NC(C)(C)C)N(CCc2ccccc2)C(=O)CCC(=O)Nc2cc(C)on2)c1OC (stereo not shown),11.8
